This is one part of the list. The list includes weakly bound sequences.
Target: T1, MBP-FoxP3dN (UniProt Q99JB6)
T1 sequence: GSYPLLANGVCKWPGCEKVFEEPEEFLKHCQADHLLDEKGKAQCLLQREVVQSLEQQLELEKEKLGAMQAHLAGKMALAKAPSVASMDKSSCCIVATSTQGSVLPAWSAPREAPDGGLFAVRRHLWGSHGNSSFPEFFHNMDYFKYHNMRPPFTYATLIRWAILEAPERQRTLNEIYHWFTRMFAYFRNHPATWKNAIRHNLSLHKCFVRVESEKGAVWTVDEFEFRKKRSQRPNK
Test: PD-seq (MBP pull-down with sequencing)
Conditions: 20 mM Tris-HCl pH 7.5, 100 mM NaCl, 1.5 mM MgCl2, 0.4 uM protein, 0.1 uM dsDNA library, 30 min, room temperature, amylose pull-down; high values mean tight binding; double strand, one strand shown

| Sequence | binding signal (RPM ratio (pull-down/input)) |
| --- | --- |
| GATGATTGTTCTCCCAGCTGATGAATTGTTCTCATCGAGTAAACAAATTTTCCTAATCTTTCTGTTCAAGCGCCATCTAC | 0.452 |
| GATGATTGTTCTCCCAGCTGATGAATTTGGGCGGTCGAGTAAACAAATTTTCCTAATCTTTCTGTTCAAGCGCCATCTAC | 0.417 |
| GATGATTGTTCTCCCAGCTGATGAATTCATATGTTCGAGTAAACAAATTTTCCTAATCTTTCTGTTCAAGCGCCATCTAC | 1.38 |
| GATGATTGTTCTCCCAGCTGATGAATTGGCACAATCGAGTAAACAAATTTTCCTAATCTTTCTGTTCAAGCGCCATCTAC | 0.528 |
| GATGATTGTTCTCCCAGCTGATGAATTACCCAGATCGAGTAAACAAATTTTCCTAATCTTTCTGTTCAAGCGCCATCTAC | 0.196 |
| GATGATTGTTCTCCCAGCTGATGAATTGTCCGGCTCGAGTAAACAAATTTTCCTAATCTTTCTGTTCAAGCGCCATCTAC | 0.245 |
| GATGATTGTTCTCCCAGCTGATGAATTTTAATCATCGAGTAAACAAATTTTCCTAATCTTTCTGTTCAAGCGCCATCTAC | 0.522 |
| GATGATTGTTCTCCCAGCTGATGAATTCCCGGGATCGAGTAAACAAATTTTCCTAATCTTTCTGTTCAAGCGCCATCTAC | 0.199 |
| GATGATTGTTCTCCCAGCTGATGAATTACCGCTATCGAGTAAACAAATTTTCCTAATCTTTCTGTTCAAGCGCCATCTAC | 0.79 |
| GATGATTGTTCTCCCAGCTGATGAATTCAAAACATCGAGTAAACAAATTTTCCTAATCTTTCTGTTCAAGCGCCATCTAC | 1.67 |
| GATGATTGTTCTCCCAGCTGATGAATTGACGCTTTCGAGTAAACAAATTTTCCTAATCTTTCTGTTCAAGCGCCATCTAC | 1.25 |
| GATGATTGTTCTCCCAGCTGATGAATTACCTGCGTCGAGTAAACAAATTTTCCTAATCTTTCTGTTCAAGCGCCATCTAC | 0.555 |
| GATGATTGTTCTCCCAGCTGATGAATTGCTATTATCGAGTAAACAAATTTTCCTAATCTTTCTGTTCAAGCGCCATCTAC | 1.72 |
| GATGATTGTTCTCCCAGCTGATGAATTTGCGGGATCGAGTAAACAAATTTTCCTAATCTTTCTGTTCAAGCGCCATCTAC | 0.544 |
| GATGATTGTTCTCCCAGCTGATGAATTTCGGTTGTCGAGTAAACAAATTTTCCTAATCTTTCTGTTCAAGCGCCATCTAC | 1.29 |
| GATGATTGTTCTCCCAGCTGATGAATTACCGCATTCGAGTAAACAAATTTTCCTAATCTTTCTGTTCAAGCGCCATCTAC | 5.89 |
| GATGATTGTTCTCCCAGCTGATGAATTCATTGTTTCGAGTAAACAAATTTTCCTAATCTTTCTGTTCAAGCGCCATCTAC | 2.74 |
| GATGATTGTTCTCCCAGCTGATGAATTGATTTAATCGAGTAAACAAATTTTCCTAATCTTTCTGTTCAAGCGCCATCTAC | 0.411 |
| GATGATTGTTCTCCCAGCTGATGAATTTAGTAGCTCGAGTAAACAAATTTTCCTAATCTTTCTGTTCAAGCGCCATCTAC | 1.21 |
| GATGATTGTTCTCCCAGCTGATGAATTATGGGTGTCGAGTAAACAAATTTTCCTAATCTTTCTGTTCAAGCGCCATCTAC | 0.931 |
| GATGATTGTTCTCCCAGCTGATGAATTATCTAAATCGAGTAAACAAATTTTCCTAATCTTTCTGTTCAAGCGCCATCTAC | 0.288 |

| Sequence | binding signal (RPM ratio (pull-down/input)) |
| --- | --- |
| GATGATTGTTCTCCCAGCTGATGAATTGCGAGTTTCGAGTAAACAAATTTTCCTAATCTTTCTGTTCAAGCGCCATCTAC | 1.55 |
| GATGATTGTTCTCCCAGCTGATGAATTAATGTCTTCGAGTAAACAAATTTTCCTAATCTTTCTGTTCAAGCGCCATCTAC | 0.875 |
| GATGATTGTTCTCCCAGCTGATGAATTTATGGACTCGAGTAAACAAATTTTCCTAATCTTTCTGTTCAAGCGCCATCTAC | 1.33 |
| GATGATTGTTCTCCCAGCTGATGAATTATGGACCTCGAGTAAACAAATTTTCCTAATCTTTCTGTTCAAGCGCCATCTAC | 0.362 |
| GATGATTGTTCTCCCAGCTGATGAATTAAGGGTTTCGAGTAAACAAATTTTCCTAATCTTTCTGTTCAAGCGCCATCTAC | 0.601 |
| GATGATTGTTCTCCCAGCTGATGAATTGTCACCGTCGAGTAAACAAATTTTCCTAATCTTTCTGTTCAAGCGCCATCTAC | 0.44 |
| GATGATTGTTCTCCCAGCTGATGAATTCGGAAAGTCGAGTAAACAAATTTTCCTAATCTTTCTGTTCAAGCGCCATCTAC | 0.224 |
| GATGATTGTTCTCCCAGCTGATGAATTTGTATGCTCGAGTAAACAAATTTTCCTAATCTTTCTGTTCAAGCGCCATCTAC | 6.51 |
| GATGATTGTTCTCCCAGCTGATGAATTGTACTCATCGAGTAAACAAATTTTCCTAATCTTTCTGTTCAAGCGCCATCTAC | 0.655 |
| GATGATTGTTCTCCCAGCTGATGAATTGCGGTTCTCGAGTAAACAAATTTTCCTAATCTTTCTGTTCAAGCGCCATCTAC | 1.25 |
| GATGATTGTTCTCCCAGCTGATGAATTCAGCAGCTCGAGTAAACAAATTTTCCTAATCTTTCTGTTCAAGCGCCATCTAC | 0.994 |
| GATGATTGTTCTCCCAGCTGATGAATTACTAGTATCGAGTAAACAAATTTTCCTAATCTTTCTGTTCAAGCGCCATCTAC | 0.613 |
| GATGATTGTTCTCCCAGCTGATGAATTTAGCTTGTCGAGTAAACAAATTTTCCTAATCTTTCTGTTCAAGCGCCATCTAC | 3.43 |
| GATGATTGTTCTCCCAGCTGATGAATTTTTGCAATCGAGTAAACAAATTTTCCTAATCTTTCTGTTCAAGCGCCATCTAC | 3.95 |
| GATGATTGTTCTCCCAGCTGATGAATTACTTCAGTCGAGTAAACAAATTTTCCTAATCTTTCTGTTCAAGCGCCATCTAC | 0.207 |
| GATGATTGTTCTCCCAGCTGATGAATTCTATACGTCGAGTAAACAAATTTTCCTAATCTTTCTGTTCAAGCGCCATCTAC | 0.455 |
| GATGATTGTTCTCCCAGCTGATGAATTTACTAGGTCGAGTAAACAAATTTTCCTAATCTTTCTGTTCAAGCGCCATCTAC | 0.384 |
| GATGATTGTTCTCCCAGCTGATGAATTTTCCAGATCGAGTAAACAAATTTTCCTAATCTTTCTGTTCAAGCGCCATCTAC | 0.155 |
| GATGATTGTTCTCCCAGCTGATGAATTGCCTCTTTCGAGTAAACAAATTTTCCTAATCTTTCTGTTCAAGCGCCATCTAC | 1.29 |
| GATGATTGTTCTCCCAGCTGATGAATTACAGGACTCGAGTAAACAAATTTTCCTAATCTTTCTGTTCAAGCGCCATCTAC | 0.297 |
| GATGATTGTTCTCCCAGCTGATGAATTCAATTTATCGAGTAAACAAATTTTCCTAATCTTTCTGTTCAAGCGCCATCTAC | 1.59 |

| Sequence | binding signal (RPM ratio (pull-down/input)) |
| --- | --- |
| GATGATTGTTCTCCCAGCTGATGAATTCGTATGTTCGAGTAAACAAATTTTCCTAATCTTTCTGTTCAAGCGCCATCTAC | 2.69 |
| GATGATTGTTCTCCCAGCTGATGAATTTGCACAATCGAGTAAACAAATTTTCCTAATCTTTCTGTTCAAGCGCCATCTAC | 0.76 |
| GATGATTGTTCTCCCAGCTGATGAATTTTGTCGGTCGAGTAAACAAATTTTCCTAATCTTTCTGTTCAAGCGCCATCTAC | 0.899 |
| GATGATTGTTCTCCCAGCTGATGAATTAGACTAGTCGAGTAAACAAATTTTCCTAATCTTTCTGTTCAAGCGCCATCTAC | 0.351 |
| GATGATTGTTCTCCCAGCTGATGAATTATTTTGGTCGAGTAAACAAATTTTCCTAATCTTTCTGTTCAAGCGCCATCTAC | 0.995 |
| GATGATTGTTCTCCCAGCTGATGAATTTAGCTCGTCGAGTAAACAAATTTTCCTAATCTTTCTGTTCAAGCGCCATCTAC | 0.607 |
| GATGATTGTTCTCCCAGCTGATGAATTTAGGAGTTCGAGTAAACAAATTTTCCTAATCTTTCTGTTCAAGCGCCATCTAC | 0.485 |
| GATGATTGTTCTCCCAGCTGATGAATTAGGCTTTTCGAGTAAACAAATTTTCCTAATCTTTCTGTTCAAGCGCCATCTAC | 2.23 |
| GATGATTGTTCTCCCAGCTGATGAATTGCGCTGGTCGAGTAAACAAATTTTCCTAATCTTTCTGTTCAAGCGCCATCTAC | 1.19 |
| GATGATTGTTCTCCCAGCTGATGAATTCTGCCTCTCGAGTAAACAAATTTTCCTAATCTTTCTGTTCAAGCGCCATCTAC | 5.87 |
| GATGATTGTTCTCCCAGCTGATGAATTCAAGCCGTCGAGTAAACAAATTTTCCTAATCTTTCTGTTCAAGCGCCATCTAC | 0.451 |
| GATGATTGTTCTCCCAGCTGATGAATTAGGAAGGTCGAGTAAACAAATTTTCCTAATCTTTCTGTTCAAGCGCCATCTAC | 0.23 |
| GATGATTGTTCTCCCAGCTGATGAATTCATACGCTCGAGTAAACAAATTTTCCTAATCTTTCTGTTCAAGCGCCATCTAC | 0.421 |
| GATGATTGTTCTCCCAGCTGATGAATTGTTACTCTCGAGTAAACAAATTTTCCTAATCTTTCTGTTCAAGCGCCATCTAC | 0.89 |
| GATGATTGTTCTCCCAGCTGATGAATTACTGTCATCGAGTAAACAAATTTTCCTAATCTTTCTGTTCAAGCGCCATCTAC | 0.598 |
| GATGATTGTTCTCCCAGCTGATGAATTCGTCTATTCGAGTAAACAAATTTTCCTAATCTTTCTGTTCAAGCGCCATCTAC | 1.17 |
| GATGATTGTTCTCCCAGCTGATGAATTAAGCTGCTCGAGTAAACAAATTTTCCTAATCTTTCTGTTCAAGCGCCATCTAC | 0.527 |
| GATGATTGTTCTCCCAGCTGATGAATTGCGTCGATCGAGTAAACAAATTTTCCTAATCTTTCTGTTCAAGCGCCATCTAC | 0.787 |
| GATGATTGTTCTCCCAGCTGATGAATTGTTTATCTCGAGTAAACAAATTTTCCTAATCTTTCTGTTCAAGCGCCATCTAC | 6.57 |
| GATGATTGTTCTCCCAGCTGATGAATTCGCGCACTCGAGTAAACAAATTTTCCTAATCTTTCTGTTCAAGCGCCATCTAC | 0.646 |
| GATGATTGTTCTCCCAGCTGATGAATTCATATTATCGAGTAAACAAATTTTCCTAATCTTTCTGTTCAAGCGCCATCTAC | 0.831 |
